{
  "source": "paper PMC4132065",
  "about": "(2014)",
  "key": {"[1]": {"target": "T1, LexA BD-Pxa2_NBD-CT (S. cerevisiae) (UniProt P34230)", "T1 sequence": "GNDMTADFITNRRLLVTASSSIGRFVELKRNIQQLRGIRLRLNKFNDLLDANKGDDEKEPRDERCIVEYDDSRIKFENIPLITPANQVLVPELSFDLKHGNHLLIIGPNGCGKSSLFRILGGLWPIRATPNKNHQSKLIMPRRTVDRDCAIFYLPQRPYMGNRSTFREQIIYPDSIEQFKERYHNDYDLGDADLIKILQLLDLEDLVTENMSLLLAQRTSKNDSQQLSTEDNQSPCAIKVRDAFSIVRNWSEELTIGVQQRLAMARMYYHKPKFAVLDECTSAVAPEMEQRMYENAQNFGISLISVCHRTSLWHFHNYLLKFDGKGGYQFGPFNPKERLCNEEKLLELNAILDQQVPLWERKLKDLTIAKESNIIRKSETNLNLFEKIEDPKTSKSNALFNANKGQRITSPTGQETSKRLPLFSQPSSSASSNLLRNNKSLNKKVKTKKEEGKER", "assay": "two-hybrid; EGY48 (pSH18-34) reporter strain, Pxa2 fragment fused to LexA BD (pEG202) and partner fused to Gal4 AD (pACT2); beta-galactosidase on an X-gal plate, 16 h at 30°C, blue indicates interaction"}, "[2]": {"target": "T2, LexA BD-Pxa2_NBD (S. cerevisiae) (UniProt P34230)", "T2 sequence": "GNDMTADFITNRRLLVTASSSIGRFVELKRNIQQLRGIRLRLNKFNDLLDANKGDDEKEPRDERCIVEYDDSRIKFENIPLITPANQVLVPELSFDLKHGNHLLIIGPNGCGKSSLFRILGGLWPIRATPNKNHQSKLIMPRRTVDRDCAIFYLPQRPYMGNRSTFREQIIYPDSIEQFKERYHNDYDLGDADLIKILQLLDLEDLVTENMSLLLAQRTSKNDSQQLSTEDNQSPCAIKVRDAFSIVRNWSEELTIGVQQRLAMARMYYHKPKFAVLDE", "assay": "two-hybrid; EGY48 (pSH18-34) reporter strain, Pxa2 fragment fused to LexA BD (pEG202) and partner fused to Gal4 AD (pACT2); beta-galactosidase on an X-gal plate, 16 h at 30°C, blue indicates interaction"}, "[3]": {"target": "T3, LexA BD-Pxa2_CT (S. cerevisiae) (UniProt P34230)", "T3 sequence": "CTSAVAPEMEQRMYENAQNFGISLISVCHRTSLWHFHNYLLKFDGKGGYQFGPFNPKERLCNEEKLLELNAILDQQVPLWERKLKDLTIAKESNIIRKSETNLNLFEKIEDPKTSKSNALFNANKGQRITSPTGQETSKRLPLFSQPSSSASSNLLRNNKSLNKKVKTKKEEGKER", "assay": "two-hybrid; EGY48 (pSH18-34) reporter strain, Pxa2 fragment fused to LexA BD (pEG202) and partner fused to Gal4 AD (pACT2); beta-galactosidase on an X-gal plate, 16 h at 30°C, blue indicates interaction"}, "[4]": {"target": "T4, Pxa2_NBD-CT1+2-His (S. cerevisiae) (UniProt P34230)", "T4 sequence": "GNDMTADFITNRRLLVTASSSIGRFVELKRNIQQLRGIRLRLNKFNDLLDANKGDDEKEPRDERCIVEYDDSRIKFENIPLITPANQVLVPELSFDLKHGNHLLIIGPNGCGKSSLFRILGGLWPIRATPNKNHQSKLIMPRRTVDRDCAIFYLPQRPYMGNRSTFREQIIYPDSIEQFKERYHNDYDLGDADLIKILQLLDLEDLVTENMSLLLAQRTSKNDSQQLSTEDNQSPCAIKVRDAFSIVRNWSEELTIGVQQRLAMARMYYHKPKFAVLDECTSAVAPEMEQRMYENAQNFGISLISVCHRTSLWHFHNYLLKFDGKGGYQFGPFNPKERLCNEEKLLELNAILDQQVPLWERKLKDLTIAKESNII", "assay": "pull-down; His6-tagged Pxa2 fragments co-expressed with Pxa1_NBD-HA in yeast BJ2168; total extracts over Ni-NTA column at 4°C, 10 mM Tris pH 7.6, 150 mM NaCl, wash 25 mM imidazole, elution 250 mM imidazole; Western blot, E2 fraction normalised to total"}, "[5]": {"target": "T5, Pxa2_NBD-CT-His6 (S. cerevisiae) (UniProt P34230)", "T5 sequence": "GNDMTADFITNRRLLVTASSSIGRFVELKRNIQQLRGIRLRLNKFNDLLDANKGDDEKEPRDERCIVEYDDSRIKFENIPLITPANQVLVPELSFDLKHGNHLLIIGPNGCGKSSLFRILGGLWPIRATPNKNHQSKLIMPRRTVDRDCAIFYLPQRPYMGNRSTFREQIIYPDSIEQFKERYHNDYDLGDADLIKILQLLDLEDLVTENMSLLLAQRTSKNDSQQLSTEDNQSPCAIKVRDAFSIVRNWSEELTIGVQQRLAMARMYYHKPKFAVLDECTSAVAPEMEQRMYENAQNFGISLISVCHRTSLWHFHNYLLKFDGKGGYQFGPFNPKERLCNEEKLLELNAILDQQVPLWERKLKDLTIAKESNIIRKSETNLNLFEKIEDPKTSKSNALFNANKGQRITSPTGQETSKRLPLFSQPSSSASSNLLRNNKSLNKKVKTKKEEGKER", "assay": "pull-down; His6-tagged Pxa2 fragments co-expressed with Pxa1_NBD-HA in yeast BJ2168; total extracts over Ni-NTA column at 4°C, 10 mM Tris pH 7.6, 150 mM NaCl, wash 25 mM imidazole, elution 250 mM imidazole; Western blot, E2 fraction normalised to total"}, "[6]": {"target": "T6, LexA BD-Pxa2_NBD-CT1+2 (S. cerevisiae) (UniProt P34230)", "T6 sequence": "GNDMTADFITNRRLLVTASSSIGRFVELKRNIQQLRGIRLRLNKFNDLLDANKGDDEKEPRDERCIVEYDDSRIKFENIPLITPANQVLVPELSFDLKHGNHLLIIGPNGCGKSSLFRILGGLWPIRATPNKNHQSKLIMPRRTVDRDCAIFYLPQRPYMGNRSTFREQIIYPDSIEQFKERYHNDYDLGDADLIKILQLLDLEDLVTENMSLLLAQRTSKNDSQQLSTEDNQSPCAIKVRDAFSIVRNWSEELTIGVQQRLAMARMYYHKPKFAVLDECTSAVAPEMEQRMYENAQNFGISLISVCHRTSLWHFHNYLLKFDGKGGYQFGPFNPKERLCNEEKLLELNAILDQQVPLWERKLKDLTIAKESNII", "assay": "two-hybrid; EGY48 (pSH18-34) reporter strain, Pxa2 fragment fused to LexA BD (pEG202) and partner fused to Gal4 AD (pACT2); beta-galactosidase on an X-gal plate, 16 h at 30°C, blue indicates interaction"}, "[7]": {"target": "T7, LexA BD-Pxa2_NBD-CT1 (S. cerevisiae) (UniProt P34230)", "T7 sequence": "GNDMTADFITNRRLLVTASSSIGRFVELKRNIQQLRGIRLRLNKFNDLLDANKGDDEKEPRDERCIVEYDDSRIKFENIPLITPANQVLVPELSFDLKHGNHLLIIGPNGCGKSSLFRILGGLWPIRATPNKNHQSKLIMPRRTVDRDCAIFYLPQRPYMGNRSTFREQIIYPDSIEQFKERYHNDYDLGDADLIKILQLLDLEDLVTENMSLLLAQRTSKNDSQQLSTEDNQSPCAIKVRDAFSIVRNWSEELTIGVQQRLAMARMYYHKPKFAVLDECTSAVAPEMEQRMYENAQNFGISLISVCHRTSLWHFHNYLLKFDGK", "assay": "two-hybrid; EGY48 (pSH18-34) reporter strain, Pxa2 fragment fused to LexA BD (pEG202) and partner fused to Gal4 AD (pACT2); beta-galactosidase on an X-gal plate, 16 h at 30°C, blue indicates interaction"}},
  "note": "No constants are given. Whether binding was seen depends on the method and setting. For some of these results: Binding seen in cells or lysates may run through a third protein. Some binding calls cover weakened binding; strength is not graded here. Sequences can lack the tags named with a protein.",
  "data": [
    {"binder": "Gal4 AD-Pxa1_NBD-CT (domain or fragment, UniProt P41909 500-870) SRLMHSIKDISQLTGYTNRIFTLLSVLHRVHSLNFNYGAVPSILSIRTEDASRNSNLLPTTDNSQDAIRGTIQRNFNGIRLENIDVIIPSVRASEGIKLINKLTFQIPLHIDPITSKSNSIQDLSKANDIKLPFLQGSGSSLLILGPNGCGKSSIQRIIAEIWPVYNKNGLLSIPSENNIFFIPQKPYFSRGGTLRDQIIYPMSSDEFFDRGFRDKELVQILVEVKLDYLLKRGVGLTYLDAIADWKDLLSGGEKQRVNFARIMFHKPLYVVLDEATNAISVDMEDYLFNLLKRYRFNFISISQRPTLIKYHEMLLEIGENRDGKWQLQAVGTDEAITSIDNEIEELERKLERVKGWEDERTKLREKLEII", "values": [
      {"measurement": "binding", "setting": "[1]", "value": "binds"},
      {"measurement": "binding", "setting": "[2]", "value": "no binding"}
    ]},
    {"binder": "Gal4 AD-Pxa2_NBD (domain or fragment, UniProt P34230 399-677) GNDMTADFITNRRLLVTASSSIGRFVELKRNIQQLRGIRLRLNKFNDLLDANKGDDEKEPRDERCIVEYDDSRIKFENIPLITPANQVLVPELSFDLKHGNHLLIIGPNGCGKSSLFRILGGLWPIRATPNKNHQSKLIMPRRTVDRDCAIFYLPQRPYMGNRSTFREQIIYPDSIEQFKERYHNDYDLGDADLIKILQLLDLEDLVTENMSLLLAQRTSKNDSQQLSTEDNQSPCAIKVRDAFSIVRNWSEELTIGVQQRLAMARMYYHKPKFAVLDE", "values": [
      {"measurement": "binding", "setting": "[3]", "value": "binds"}
    ]},
    {"binder": "Pxa1_NBD-HA (domain or fragment, UniProt P41909 500-774) SRLMHSIKDISQLTGYTNRIFTLLSVLHRVHSLNFNYGAVPSILSIRTEDASRNSNLLPTTDNSQDAIRGTIQRNFNGIRLENIDVIIPSVRASEGIKLINKLTFQIPLHIDPITSKSNSIQDLSKANDIKLPFLQGSGSSLLILGPNGCGKSSIQRIIAEIWPVYNKNGLLSIPSENNIFFIPQKPYFSRGGTLRDQIIYPMSSDEFFDRGFRDKELVQILVEVKLDYLLKRGVGLTYLDAIADWKDLLSGGEKQRVNFARIMFHKPLYVVLDE", "values": [
      {"measurement": "binding", "setting": "[4]", "value": "binds"},
      {"measurement": "binding", "setting": "[5]", "value": "binds"}
    ]},
    {"binder": "Gal4 AD-Pxa1_NBD (domain or fragment, UniProt P41909 500-774) SRLMHSIKDISQLTGYTNRIFTLLSVLHRVHSLNFNYGAVPSILSIRTEDASRNSNLLPTTDNSQDAIRGTIQRNFNGIRLENIDVIIPSVRASEGIKLINKLTFQIPLHIDPITSKSNSIQDLSKANDIKLPFLQGSGSSLLILGPNGCGKSSIQRIIAEIWPVYNKNGLLSIPSENNIFFIPQKPYFSRGGTLRDQIIYPMSSDEFFDRGFRDKELVQILVEVKLDYLLKRGVGLTYLDAIADWKDLLSGGEKQRVNFARIMFHKPLYVVLDE", "values": [
      {"measurement": "binding", "setting": "[6]", "value": "binds"},
      {"measurement": "binding", "setting": "[7]", "value": "no binding"},
      {"measurement": "binding", "setting": "[1]", "value": "binds"},
      {"measurement": "binding", "setting": "[3]", "value": "no binding"},
      {"measurement": "binding", "setting": "[2]", "value": "no binding"}
    ]}
  ]
}
